PubChem BioAssay AID686978 (National Center for Advancing Translational Sciences (NCATS), 2013)
About 64,000 (15%) of roughly 420,000 compounds were called active. The inconclusive results got no clear call from the source; some entries with a clear call stand among them for comparison. Calls come from the whole dose curve; as a rule, active = well fitted inhibition curve with a large enough effect; inconclusive = small, poorly fitted or top-dose-only effect; inactive = flat fitted curve, though single readings scatter. No potency is given beside an inconclusive call; the fits are too rough.

Experiment: qHTS for Inhibitors of human tyrosyl-DNA phosphodiesterase 1 (TDP1): qHTS in cells in absence of CPT; note: nearly all actives have a fitted effect of over 55% in size
Conditions: DT40 Tdp1-/- hTDP1 cells, no CPT, ATP luminescence, 48 h; series mostly up to 46.2 µM
Procedure, shortened: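 Compound effects on proliferation are scored in DT40 Tdp1-/-;hTDP1 cells in the absence of CPT. ATP levels (CellTiter-Glo luminescence) are recorded after a ≥48 hr, 37 °C incubation.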
Potency is the fitted concentration of half-maximal effect; tags give direction and shape of the fitted curve.

Structure (SMILES)	Potency
C=CCNC(=O)N1CCc2[nH]c3ccc(F)cc3c2C1	inactive
COc1ccc(Cc2nnc(SCc3ccc([N+](=O)[O-])cc3)o2)cc1	inconclusive [inhibitor, partial curve]
Cn1c(=O)c2c(n3cnnc13)-c1ccccc1CC21CCCC1	active: 14.6 µM
Cc1cccc(NCc2cccc3ccccc23)n1	inconclusive [inhibitor, single point]
COc1cc(/C=C/C(=O)C2C(=O)C=C(C)OC2=O)cc(OC)c1O (stereo not drawn)	inconclusive [inhibitor, single point]
C=CCNc1ncnc2c1ncn2[C@H]1CN(Cc2cccc3ccccc23)C[C@@H](CO)O1	inconclusive [inhibitor, single point]
Cc1c(C(=O)NCc2ccc3c(c2)OCO3)oc2ccc(S(=O)(=O)N3CCC(C)CC3)cc12	active: 14.6 µM
O=C(CC[C@H]1O[C@@H](n2cnc3c(NC(=O)c4ccccc4)ncnc32)[C@H](O)[C@@H]1O)NCC1CCCCC1	inactive
COc1ccccc1NC(=O)CN1C(=O)C(c2ccc(F)cc2)=NC12CCCCC2	active: 23.1 µM
CCn1c(=O)cc(OCC(=O)NCc2cccs2)c2ccccc21	inconclusive [inhibitor, single point]
CCN1C(=O)/C(=C\c2ccncc2)SC1=Nc1ccc(C)c(C)c1	active: 16.4 µM
CCc1ccc2oc(-c3cc(NC(=O)c4cc(OC)c(OC)c(OC)c4)ccc3O)nc2c1	inconclusive [inhibitor, single point]
Cc1ccc2nc(SCC(=O)Nc3ccc(Br)cc3)nc(=O)n2c1	inactive
COc1ccc(C(=O)n2cnc3ccccc32)cc1[N+](=O)[O-]	inactive
CCOCCCNC(=O)c1ccc2c(=O)n(CCc3ccccc3)c(=O)[nH]c2c1	inactive
O=C(COC(=O)COc1ccc(Br)cc1)NNC(=O)c1ccccc1	inconclusive [inhibitor, single point]
O=C(Nc1ccc(F)c(F)c1)c1cnc(-c2ccccc2)nc1-c1ccccc1	inconclusive [inhibitor, single point]
N/C(=N\O)c1ccc(NC(=O)c2ccc(Br)o2)cc1	inconclusive [inhibitor, single point]
COc1ccc(S(=O)(=O)Nc2ccc3c(c2)n(C)c(=O)n3C)cc1	inactive
COc1ccc(Br)c(-c2nnc(CS(=O)(=O)c3ccccc3)o2)c1	inconclusive [inhibitor, partial curve, poor fit]
O=C1NC(=O)C(=C2CCOC2=O)N1	inactive
Cc1ccc(C)c(NC(=S)NCCc2c[nH]c3ccccc23)c1	active: 13 µM
CCOc1ccc2[nH]c(=O)c(C(c3nnnn3Cc3ccco3)N3CCC(C)CC3)cc2c1 (stereo not drawn)	active: 25.9 µM
O=C(NCCCN1CCCCCC1)c1ccc2c(Cl)c3c(nc2c1)CCCC3	inactive

Structure (SMILES)	Potency
Nc1nnc(CC(c2ccccc2)c2ccccc2)s1	inconclusive [inhibitor, partial curve]
CCCCN(CCCC)S(=O)(=O)c1ccc(NS(=O)(=O)c2ccc(NC(C)=O)cc2)cc1	inactive
COc1cccc(C(=O)/C(C#N)=N/Nc2cccc(-c3ccnc(C)n3)c2)c1	active: 20.6 µM
C=CCN1CCN(C(=O)c2cc3c(s2)CCC(CC)C3)CC1 (stereo not drawn)	active: 16.4 µM
COC(=O)c1sc2cc(C(F)(F)F)cnc2c1-c1ccccn1	inactive
Cc1ccc(-c2cc(O)cc3sc(=O)oc23)cc1C	active: 20.6 µM
O=[N+]([O-])c1cc(S(=O)(=O)N2CCCC2)ccc1NN=C1CCCC1	inconclusive [inhibitor, partial curve]
COc1cccc(N2CCN(C(=O)c3cnn(-c4ccccc4Cl)c3C3CCN(C(=O)OC(C)(C)C)CC3)CC2)c1	active: 20.6 µM
O=C(NCc1ccccc1Br)c1cccc2c1C(=O)c1ccc(-c3ccc(OC(F)(F)F)cc3)cc1S2(=O)=O	active: 7.31 µM
CCOc1ccccc1C(=O)N1CCC(n2nnc3cc(C)ccc32)CC1	inconclusive [inhibitor, single point]
COc1cccc(NC(=O)C2CC(=O)N=C(N)S2)c1 (stereo not drawn)	inactive
Cc1ccc(S(=O)(=O)N(C)c2ccc(C(=O)Nc3c(C)n(C)n(-c4ccccc4)c3=O)cc2)cc1	inactive
CC1CCCCC12NC(=O)N(CC(=O)c1ccc[nH]1)C2=O (stereo not drawn)	inactive
O=C(Nc1ccc([N+](=O)[O-])cc1)Nn1cnnc1	inactive
CC(=O)c1ccc(NS(=O)(=O)c2cc3c(cc2C)N(C)CCO3)cc1	inconclusive [inhibitor, full curve]
O=C(Nc1ccc(F)c(Cl)c1)c1cc(C2CCCN(S(=O)(=O)c3ccccc3)C2)on1 (stereo not drawn)	inconclusive [inhibitor, single point]
Cc1nn2c(COc3ccc(NC(=O)C(C)C)cc3)nnc2c2ccccc12	inconclusive [inhibitor, partial curve]
COc1cccc(CC(=O)OC(C)C(=O)Nc2ncc(Cl)cc2Cl)c1 (stereo not drawn)	inactive
CN(C)CCn1c2c(c(SCC(=O)N3CCc4ccccc43)nc1=O)CCCC2	inconclusive [inhibitor, partial curve, poor fit]
COc1ccc([C@@H]2[C@H]3CN(C(C)=O)CC=C3C(C#N)=C(N)C2(C#N)C#N)c2ccccc12	inconclusive [inhibitor, partial curve]
CCCS(=O)(=O)c1c(S(=O)(=O)CCC)c2c(N)cccn2c1C(=O)OC	inconclusive [inhibitor, single point]
O=C(NC(=S)Nn1cnc2c(cnn2-c2ccccc2)c1=O)c1ccccc1	inconclusive [inhibitor, single point]
C/C(=N\NC(=O)c1cc(-c2cccs2)nc2ccccc12)c1ccccn1	active: 0.731 µM
COc1cc(-c2[nH]ncc2CN2CCc3sccc3C2)cc(OC)c1OC	active: 10.3 µM
